# Measured values from the RNAGym collection of RNA variant scans (doi:10.7554/elife.90254).
# Read counts are not given, so values of variants with three or more changes are uncertain.
# B1: LINE1-mini (parent)
# chain: GGCAGAGCUCAACACAGCGUGGCAAAGUGGCUGUGGCUAGACUGCC
# Variants of: B1
# Assay: self-cleavage, relative activity (ratio to wild type); higher = more cleavage; in vitro, sequencing; the parent is a self-cleaving ribozyme
row,Variant,self-cleavage
1,G1C A16G C23G G36U,0.02
2,G5U A11G G35A U38A,0.05
3,A12U G29C U32G,0.02
4,A11G C31A U32G G33U,0.01
5,G2U A11C C18A A25C G33C,0
6,A16C C37G U38C G44A C45A,0.02
7,G5C U9C C18U G35C,0.01
8,U9A C23U C46A,0.35
9,C23U A41U G44A,0.3
10,C3A G19A G36U,0.35
11,A4U C10A G19A U20G G21U G27U,0.01
12,C3U C10A A14C G21A G36U,0.01
13,C3G G5C A12C C15A G40U,0.05
14,A6U C15A G29U,0.04
15,G2U G22C G29C G30C A39C C46G,0.03
16,C8G C13U G21U G35U,0.43
17,C10U C18A C31G,0.12
18,G2U A6U C13G C15A G17A G22U,0.12
19,G7C A26U C37A,0.07
20,U28C G40U C45G,0.12
21,A12C C18G C23U G35A,0

row,Variant,self-cleavage
1,G5A U28G U43A,0.11
2,A6C C13G G21C C23G G29C G40U,0.07
3,A6U C10A U38A,0.05
4,C23U A24U G30U U34G,0.04
5,G5U A11G A14G G30U U32A G44C,0
6,G17C G30U C45A,0.05
7,G7U C13G G17U,0.09
8,G21C C23G A24C A26C G29C,1.68
9,G1C U20G G27A C46A,0.03
10,G2A G7U A12U A16C A25C U32G,0.04
11,C18U G21C C37A,0.03
12,A11C G17A G33C,0.02
13,A11C A12C A14C G27C C45U,0
14,G5C C15G C18A G22C,0.02
15,G1A C15U G19A G27U,0.14
16,A25G G33A G36A A41C,0.05
17,U9A C10A C18A G40U,0.04
18,C3A C8A A16G,0.15
19,A26C G27C C31G,0.02
20,G1A A14G A24C,0.1
21,C15G C31U U38C G44A,0

row,Variant,self-cleavage
1,G5A C23A G36A,0.1
2,C3G G5C C13G U20C G21A,0.09
3,G1U G22A A26G A39C,0.03
4,A12G A14C G30C G36A A39G,0.06
5,U9A G35U C45A,0.03
6,A6C G30U C46A,0.54
7,A4G A12G C18U,0.02
8,U9G A11C G17U A25G,0
9,A11G G21U U28C C37U,0.01
10,C10A G36A C42A,0
11,G1C C8G A11U,0
12,A14G G21A C31U,0.09
13,C13U C37U U38C A41G,0.13
14,A12G C18A G19U A39U U43A,0.03
15,C23G A26C U28C U34C,0.05
16,A6U A24G A26C U28G C31U,0.39
17,G1A G7A A16C A26C G36U,1.7
18,U9G C23A U38C,0.04
19,G2A C13U G40U C46G,0.35
20,C13U A16G A26C C46U,0.09
21,C13U U28A G30A C31U,0.05

row,Variant,self-cleavage
1,U9G C13U C31A A41C,0.09
2,A6U G17A U38A,0.1
3,G2C A6G A16C G17C C23U A26C G44U,0.09
4,U9A C23A C37A,0.11
5,G2C G5U C10A G17U A25C U38C A41U,0.04
6,A4U A14C A24G,0.03
7,G5U A24U G33C,0.01
8,C15A G27C G35C,0.04
9,G2C C13U C37A G40A C45G,0.29
10,A4C G5C C18U,0
11,G2C A11C C13U C23G A24U U28C,0.01
12,C15G A25U A39U,0.05
13,A4G G5U C10A G22U U38C,0.03
14,C13A U28G C31U,0.04
15,C15G U32A C46G,0.02
16,C8A C13G G29U A41G,0.3
17,G19A G22U A26U U38C A41G,0.48
18,A12U G17C G29U,0
19,A4C A11G A14C G17A G19U A26G,0.01
20,C10U C13U A25C G27A,0.07
21,G1U C8A U28A G35U,0.34
